# Inconclusive means that the source gave no clear call. A potency beside an inconclusive call is a rough fit, not a confirmed value.
# Tested on: C33A
# Assay: Primary qHTS to identify gynecologic anti-cancer compounds using libraries of approved drugs and bioactive compounds (AID 1345084); further: nearly all actives have a fitted effect of over 55% in size
# Conditions: Gynecologic cancer cell panel viability, ATPlite luminescence, 48 h; series mostly up to 57.5 µM; active means well fitted cell-killing curve with a large enough effect; inconclusive means small, poorly fitted or top-dose-only effect, or effect the other way; inactive means flat fitted curve, though single readings scatter
# How it was run: (§1)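 Cells, 1,000 per well, plated 16 h, then exposed 48 h at 37 C to compounds. Viability by ATPlite luminescence after 15 min at room temperature.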
# Potency means the concentration at half of the fitted maximal effect; tags describe the fitted curve by direction and shape.
row,SMILES,Potency
1,Cc1cc(-c2ncc(CC(=O)Nc3ccc(-c4cnccn4)cn3)cc2C)ccn1,"inconclusive: 1.78 µM [cytotoxic, partial curve, poor fit]"
2,COCCCOc1ccnc(CS(=O)c2nc3ccccc3[nH]2)c1C (stereo unspecified),"inconclusive: 25.1 µM [cytotoxic, partial curve, poor fit]"
3,CN1c2ccccc2C(=O)N2CCc3c([nH]c4ccccc34)C21 (stereo unspecified),"inconclusive: 11.2 µM [cytotoxic, partial curve, poor fit]"
4,Cn1cc(-c2ccncc2)c(-c2ccc(OCc3ccc4ccccc4n3)cc2)n1,"inconclusive: 39.8 µM [cytotoxic, single point]"
5,CCN(CC)CCNC(=O)c1ccc2nc(-c3ccccc3)c(-c3ccc(CN4CCC(n5c(=O)[nH]c6ccccc65)CC4)cc3)nc2c1,"inconclusive: 22.4 µM [cytotoxic, single point]"

# Tested on: CAOV3
# Assay: as above
# Conditions: Gynecologic cancer cell panel viability, ATPlite luminescence, 48 h; series mostly up to 57.5 µM
# How it was run: as §1
row,SMILES,Potency
1,CC(C)(N)c1ccc(-c2nc3ccccc3nc2-c2ccccc2)cc1,"inconclusive: 20 µM [cytotoxic, single point]"
2,O=C(CC12CC3CC(CC(C3)C1)C2)Nc1cccc2nc(NCCNCCO)ccc12,"inconclusive: 39.8 µM [cytotoxic, single point]"
3,CCc1nc(-c2cccc(C)c2)c(-c2ccnc(NC(=O)c3ccccc3)c2)s1,"inconclusive: 25.1 µM [cytotoxic, single point]"
4,COCCCOc1ccnc(CS(=O)c2nc3ccccc3[nH]2)c1C (stereo unspecified),"inconclusive: 20 µM [cytotoxic, partial curve]"
5,CN1c2ccccc2C(=O)N2CCc3c([nH]c4ccccc34)C21 (stereo unspecified),"inconclusive: 2 µM [cytotoxic, partial curve, poor fit]"
6,CCN(CC)CCNC(=O)c1ccc2nc(-c3ccccc3)c(-c3ccc(CN4CCC(n5c(=O)[nH]c6ccccc65)CC4)cc3)nc2c1,"inconclusive: 39.8 µM [cytotoxic, single point]"
